This test deals with VZV-BAC-Luc strain. In kind it is in vivo, mouse.

SMILES strings stand for the structures.

`CCCCCCCCCCCCCCCCOCCCOP(=O)(O)COC(CO)Cn1ccc(N)nc1=O` (centres unmarked) [HDP-CDV]: the VZV spread result (1.25, 2.5, and 5.0 mg/kg, 8 doses by oral gavage once daily starting 2 dpi, 1-way ANOVA, p<0.0001) is “effective and significantly prevented VZV spread”. Moreover, the efficacy in vivo entry (eight doses of 5 mg/kg delayed to 2 dpi or 4 dpi, and 4 doses from 2-5 dpi) is on record as “effective”.

Values taken from US20150087619A1, “METHOD OF MITIGATING VIRUS ASSOCIATED END-ORGAN DAMAGE” (CHIMERIX, INC., priority 2012, published 2015).
